Reference: the supplement of paper PMC4967469

Columns and labels:
Assay in all cases: Viability of human cancer cell lines after 72 h of drug (GDSC screen)
[1] = compound: CC1(C)CNc2cc(NC(=O)c3cccnc3NCc3ccncc3)ccc21 [AMG-706]; conditions: top dose 2 µM; top dose inferred
Method: (§1)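 Human cancer cell lines in 384-well plates, medium with 10% serum, drug for 72 h over a 256-fold dose range (nine 2-fold or five 4-fold steps up to the top dose). Adherent lines were fixed and stained with the nucleic acid dye Syto60, suspension lines read with resazurin; signal relative to control wells, capped at 0 and 100%. One two-parameter sigmoid per drug and line, fitted in a mixed model over all curves with the slope shared within a line.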

[2] = compound: CN1CCN(c2ccc([N+](=O)[O-])c3no[n+]([O-])c23)CC1 [NSC-207895]; conditions: top dose 20 µM; top dose inferred
Method: as §1

[3] = compound: Cc1ccc(C(=O)N(CCCN)[C@@H](c2nc3cc(Cl)ccc3c(=O)n2Cc2ccccc2)C(C)C)cc1 [SB-715992]; conditions: top dose 0.128 µM; top dose inferred
Method: as §1

[4] = compound: O=C(/C=C/c1cccc(S(=O)(=O)Nc2ccccc2)c1)NO [Belinostat]; conditions: top dose 20 µM; top dose inferred
Method: as §1

[5] = compound: COCC[n+]1c2c(n(Cc3cnccn3)c1C)C(=O)c1ccccc1C2=O [YM155]; conditions: top dose 5.12 µM
Method: as §1

[6] = compound: C[C@]1(O)C[C@@H](c2nc(-c3ccc4ccc(-c5ccccc5)nc4c3)c3c(N)nccn32)C1 [OSI-906]; conditions: top dose 2.56 µM; top dose inferred
Method: as §1

[7] = compound: COC(=O)[C@H](CCSC)NC(=O)c1ccc(NC[C@@H](N)CS)cc1-c1ccccc1 [FTI-277]; conditions: top dose 1.024 µM; top dose inferred
Method: as §1

[8] = compound: Cc1sc2c(c1C)C(c1ccc(Cl)cc1)=N[C@@H](CC(=O)OC(C)(C)C)c1nnc(C)n1-2 [JQ1]
Method: as §1

[9] = compound: CCOc1nc(NC(=O)Cc2cc(OC)ccc2OC)cc(N)c1C#N [JNK Inhibitor VIII]; conditions: top dose 10 µM; top dose inferred
Method: as §1

[10] = compound: c1ccc2c(CCNc3ccc(Nc4ccncc4)cc3)c[nH]c2c1 [JNJ-26854165]; conditions: top dose 10 µM
Method: as §1

[11] = top dose 2.56 µM, screen: GDSC drug entry 163
[12] = top dose 1 µM, screen: GDSC drug entry 1218, top dose inferred

Cell Line | AUC [1] | IC50 [1] [nM] | AUC [2] | IC50 [2] [µM] | AUC [3] | IC50 [3] [nM] | AUC [4] | IC50 [4] [nM] | AUC [5] | IC50 [5] [nM] | AUC [6] | IC50 [6] [nM] | AUC [7] | IC50 [7] [nM] | AUC [8, 11] | IC50 [8, 11] [nM] | AUC [9] | IC50 [9] [µM] | AUC [10] | IC50 [10] [µM] | AUC [8, 12] | IC50 [8, 12] [nM]
FADU (head and neck, adherent) | 0.924 | > 2000 | 0.982 | > 20 | 0.955 | > 128 | 0.629 | 2790 | 0.041 | < 20 | 0.988 | > 2560 | 0.969 | > 1020 | 0.784 | 1050 | 0.97 | > 10 | 0.798 | 4.57 | – | –
GAMG (glioma, adherent) | 0.976 | > 2000 | 0.966 | > 20 | 0.597 | 14.9 | 0.263 | 253 | 0.028 | < 20 | 0.946 | > 2560 | 0.965 | > 1020 | 0.733 | 768 | 0.953 | > 10 | 0.872 | > 10 | 0.983 | > 1000
H2591 (mesothelioma, adherent) | 0.953 | > 2000 | 0.934 | > 20 | 0.979 | > 128 | 0.698 | 5390 | 0.576 | 548 | 0.975 | > 2560 | 0.934 | > 1020 | 0.787 | 1490 | 0.976 | > 10 | 0.91 | > 10 | 0.98 | > 1000
H3255 (lung adenocarcinoma, adherent) | 0.957 | > 2000 | 0.982 | > 20 | 0.923 | > 128 | 0.676 | 4280 | 0.289 | 71.5 | 0.955 | > 2560 | 0.984 | > 1020 | 0.871 | > 2560 | 0.954 | > 10 | 0.9 | > 10 | 0.963 | > 1000
HARA (lung squamous cell carcinoma, adherent) | 0.948 | > 2000 | 0.982 | > 20 | 0.728 | 40.2 | 0.503 | 1280 | 0.04 | < 20 | 0.966 | > 2560 | 0.958 | > 1020 | 0.821 | 1810 | 0.965 | > 10 | 0.745 | 3.61 | 0.981 | > 1000
HCC1143 (breast, adherent) | 0.978 | > 2000 | 0.964 | > 20 | 0.831 | > 128 | 0.561 | 1960 | 0.274 | 55.6 | 0.802 | 1900 | 0.97 | > 1020 | 0.869 | > 2560 | 0.98 | > 10 | 0.895 | > 10 | 0.947 | > 1000
HCC1806 (breast, adherent) | 0.976 | > 2000 | 0.959 | > 20 | 0.733 | 34.6 | 0.465 | 1010 | 0.046 | < 20 | 0.961 | > 2560 | 0.983 | > 1020 | 0.898 | > 2560 | 0.974 | > 10 | 0.829 | 5.54 | 0.988 | > 1000
HCC-15 (lung squamous cell carcinoma, adherent) | 0.982 | > 2000 | 0.961 | > 20 | 0.912 | > 128 | 0.797 | 12700 | 0.125 | < 20 | 0.972 | > 2560 | 0.958 | > 1020 | 0.844 | > 2560 | 0.979 | > 10 | 0.921 | > 10 | 0.978 | > 1000
HDQ-P1 (breast, adherent) | 0.981 | > 2000 | 0.868 | > 20 | 0.963 | > 128 | 0.413 | 689 | 0.068 | < 20 | 0.835 | 2170 | 0.984 | > 1020 | 0.953 | > 2560 | 0.985 | > 10 | 0.954 | > 10 | 0.978 | > 1000
HLE (liver, adherent) | 0.989 | > 2000 | 0.525 | 1.46 | 0.928 | > 128 | 0.344 | 475 | 0.052 | < 20 | 0.967 | > 2560 | 0.982 | > 1020 | 0.75 | 794 | 0.952 | > 10 | 0.824 | 5.52 | 0.987 | > 1000
HOS (osteosarcoma, adherent) | 0.986 | > 2000 | 0.992 | > 20 | 0.992 | > 128 | 0.992 | > 20000 | 0.941 | > 5120 | 0.992 | > 2560 | 0.98 | > 1020 | 0.759 | 764 | 0.975 | > 10 | 0.833 | 5.04 | 0.992 | > 1000
Hep 3B2_1-7 (liver, adherent) | 0.909 | > 2000 | 0.962 | > 20 | 0.979 | > 128 | 0.43 | 807 | 0.507 | 333 | 0.735 | 746 | 0.986 | > 1020 | 0.56 | 233 | 0.929 | > 10 | 0.833 | 6.45 | 0.889 | > 1000
Hs683 (glioma, adherent) | 0.979 | > 2000 | 0.983 | > 20 | 0.661 | 22.5 | 0.852 | 15800 | 0.822 | 3040 | 0.988 | > 2560 | 0.98 | > 1020 | 0.712 | 639 | 0.956 | > 10 | 0.845 | 7.34 | 0.987 | > 1000
HuCCT1 (biliary tract, adherent) | 0.976 | > 2000 | 0.731 | 6.19 | 0.897 | > 128 | 0.467 | 1010 | 0.03 | < 20 | 0.981 | > 2560 | 0.962 | > 1020 | 0.529 | 194 | 0.982 | > 10 | 0.869 | > 10 | 0.98 | > 1000
HuP-T4 (pancreas, adherent) | 0.98 | > 2000 | 0.941 | > 20 | 0.725 | 36.5 | 0.373 | 544 | 0.028 | < 20 | 0.979 | > 2560 | 0.977 | > 1020 | 0.85 | 2130 | 0.977 | > 10 | 0.954 | > 10 | – | –
JEG-3 (urogenital system, adherent) | 0.98 | > 2000 | 0.957 | > 20 | 0.966 | > 128 | 0.991 | > 20000 | 0.785 | 1970 | 0.991 | > 2560 | 0.989 | > 1020 | 0.776 | 923 | 0.989 | > 10 | 0.955 | > 10 | 0.987 | > 1000
JHH-2 (liver, adherent) | 0.961 | > 2000 | 0.576 | 2.05 | 0.938 | > 128 | 0.414 | 714 | 0.031 | < 20 | 0.967 | > 2560 | 0.946 | > 1020 | 0.986 | > 2560 | 0.964 | > 10 | 0.959 | > 10 | 0.916 | > 1000
JHH-7 (liver, adherent) | 0.984 | > 2000 | 0.979 | > 20 | 0.963 | > 128 | 0.566 | 1870 | 0.823 | 2780 | 0.961 | > 2560 | 0.93 | > 1020 | 0.785 | 1020 | 0.985 | > 10 | 0.869 | 8.27 | 0.988 | > 1000
KMRC-20 (kidney, adherent) | 0.966 | > 2000 | 0.92 | > 20 | 0.986 | > 128 | 0.693 | 4380 | 0.052 | < 20 | 0.983 | > 2560 | 0.975 | > 1020 | 0.96 | > 2560 | 0.986 | > 10 | 0.891 | > 10 | 0.987 | > 1000
KYSE-510 (oesophagus, adherent) | 0.983 | > 2000 | 0.989 | > 20 | 0.953 | > 128 | 0.514 | 1360 | 0.271 | 82 | 0.991 | > 2560 | 0.992 | > 1020 | 0.654 | 395 | 0.978 | > 10 | 0.812 | 4.28 | 0.99 | > 1000
LC-1-sq (lung squamous cell carcinoma, adherent) | 0.965 | > 2000 | 0.98 | > 20 | 0.788 | 66.8 | 0.452 | 903 | 0.39 | 152 | 0.956 | > 2560 | 0.977 | > 1020 | 0.769 | 1130 | 0.98 | > 10 | 0.856 | > 10 | 0.983 | > 1000
LCLC-97TM1 (large cell lung carcinoma, adherent) | 0.983 | > 2000 | 0.796 | 10.4 | 0.641 | 20.4 | 0.398 | 636 | 0.03 | < 20 | 0.525 | 188 | 0.906 | > 1020 | 0.471 | 132 | 0.982 | > 10 | 0.883 | > 10 | 0.981 | > 1000
LU-135 (small cell lung carcinoma, suspension) | 0.985 | > 2000 | 0.642 | 2.87 | 0.973 | > 128 | 0.112 | 98.1 | 0.016 | < 20 | 0.987 | > 2560 | 0.991 | > 1020 | 0.819 | 1150 | 0.99 | > 10 | 0.878 | 7.26 | 0.992 | > 1000
MC-IXC (neuroblastoma, adherent) | 0.996 | > 2000 | 0.69 | 3.62 | 0.414 | 4.95 | 0.314 | 442 | 0.015 | < 20 | 0.883 | 1510 | 0.987 | > 1020 | 0.654 | 379 | 0.996 | > 10 | 0.803 | 3.51 | 0.996 | > 1000

A lower IC50 marks a more sensitive line; where the fit passes the top or lowest dose, that dose stands as a limit. The AUC spans the tested range (256-fold, ending at the top dose) of the same fit: 1 means no effect, lower means more sensitive. For some assays here: An inferred top dose was calculated from the reported fits. For some assays here: An entry number marks a drug with two screens in the source, which often give different values.
